# The full ranking holds about 33,000 sequences; the median of “E-score (-0.5 to 0.5)” is about -0.012, and the highest 2% start at about 0.27. Some of the results follow.
# Target: T1, Vhr1 (UniProt P40522)
# T1 sequence: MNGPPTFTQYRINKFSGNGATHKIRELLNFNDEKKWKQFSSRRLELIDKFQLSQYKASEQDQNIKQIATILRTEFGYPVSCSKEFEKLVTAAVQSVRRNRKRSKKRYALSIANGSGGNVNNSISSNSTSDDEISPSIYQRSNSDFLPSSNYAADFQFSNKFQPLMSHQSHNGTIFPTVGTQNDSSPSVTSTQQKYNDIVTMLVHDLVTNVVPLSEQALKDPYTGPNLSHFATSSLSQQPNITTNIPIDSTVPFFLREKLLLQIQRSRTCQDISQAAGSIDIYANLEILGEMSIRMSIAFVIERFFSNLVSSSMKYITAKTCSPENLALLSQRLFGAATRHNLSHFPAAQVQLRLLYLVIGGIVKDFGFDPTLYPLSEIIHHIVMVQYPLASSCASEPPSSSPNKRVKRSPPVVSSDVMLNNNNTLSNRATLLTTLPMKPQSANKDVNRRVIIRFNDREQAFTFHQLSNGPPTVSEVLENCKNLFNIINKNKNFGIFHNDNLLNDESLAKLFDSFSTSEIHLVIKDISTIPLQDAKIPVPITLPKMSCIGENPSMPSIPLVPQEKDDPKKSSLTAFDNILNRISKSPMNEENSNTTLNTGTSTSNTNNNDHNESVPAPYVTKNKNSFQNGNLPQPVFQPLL
# Assay: PBM E-score (8-mer binding enrichment) (E-score (-0.5 to 0.5)); higher = stronger / more preferred TF binding; most listed sequences are background and not binding sites
# Settings: protein concentration: 200 nM; construct: GST-full length
# How it was run: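 Yeast transcription factors, full-length or as DNA-binding domains, were expressed with a GST tag using PURExpress in vitro transcription/translation. At about 100-200 nM they were applied to universal all-10-mer Agilent arrays, double-stranded by primer extension on fresh or once-stripped slides. Fluorescent anti-GST detected bound protein, and masliner normalised the scans. E-scores for ungapped eight-base words, pooled with reverse complements, came from the Universal PBM Analysis Suite.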
row,Sequence,PBM E-score
1,ACTCAATA,0.257
2,GAATCGAA,0.129
3,CATGTACG,0.123
4,ACGTGACA,-0.197
5,ACTGGACA,0.0475
6,GACCGAGC,0.0283
7,ACTACTCT,0.218
8,ACACCGAA,0.149
9,AGCGTCTA,-0.208
10,GTCCGTCA,-0.00519
11,AGAAACCT,-0.119
12,CAGCGTTC,-0.0437
13,AATGTATA,0.0845
14,GCATGGAA,0.0657
15,CAATCTCC,0.0739
16,AACCCGAC,-0.0332
17,AAGTGACT,0.226
18,CCTGGTGA,0.204
19,ACAGCAGT,0.095
20,AAACTCAA,0.017
21,CGAAGCGA,-0.0701
22,ATGTTTCC,0.0559
23,CGTGGGTC,0.236
24,AGAGGGAC,-0.219
25,GCCAGAGC,-0.25

row,Sequence,PBM E-score
1,GGCGCAAA,0.224
2,AGCCCAAA,0.197
3,CCCGCCAA,0.126
4,CGGGCGGC,0.0949
5,CTAGATTC,-0.168
6,CTAACTCA,-0.0545
7,ATCGAACA,-0.1
8,CGGATGGC,-0.0241
9,ACATTTTA,-0.133
10,GCGTTCGA,-0.0474
11,GCGCGGAC,0.0481
12,GTAATTTA,-0.0559
13,CCCTGGTC,-0.147
14,CCCAATGC,-0.144
15,ACCTGAAT,0.111
16,ACCAAAGG,-0.197
17,CGTTTTAA,-0.154
18,AGACGGAA,-0.215
19,ACGAATTA,-0.171
20,TCCCTAAA,-0.19
21,GAGTATAA,0.127
22,AAAGTGAA,-0.114
23,ATTCGGGC,-0.13
24,CTACTCAC,0.258
25,ACTCCACA,0.277

row,Sequence,PBM E-score
1,AACGGTTG,0.038
2,ATACTGGC,0.149
3,GAATTCTC,-0.0734
4,AGAGCCCA,0.00195
5,GATCCACC,0.176
6,AACGTGGT,-0.0115
7,GGCTGGTA,0.0349
8,CCATCGGG,0.0113
9,AGGTGCAG,-0.0428
10,AGTTGTGC,0.0078
11,CCGATTCC,0.00015
12,AGTCTATG,-0.0772
13,ATCAAGCA,-0.0191
14,TATGACGA,-0.0139
15,CTGCGGTC,-0.0533
16,CCAGTATA,-0.0295
17,CCTTAAAA,-0.253
18,ATCCATAG,-0.015
19,GAAAGCCC,0.0103
20,ATGAAGAA,0.0348
21,GCTCATAC,-0.135
22,AAAAGACG,-0.138
23,ACAAGTTA,0.019
24,ACGTCTGC,-0.2
25,GAGTCGGA,0.416

row,Sequence,PBM E-score
1,GGTGCAAC,-0.183
2,AGGACGCG,-0.226
3,CACGACCG,-0.188
4,AGCTCGCG,0.0952
5,ACGCCGAG,0.148
6,CGGTTCGA,0.189
7,AGAGCCGG,-0.186
8,TAAGGAAA,-0.288
9,ATTGTTAC,0.132
10,CAGTAGAG,-0.0187
11,CTGGCAAG,-0.21
12,AGCTTATG,-0.0276
13,ATTATCTC,-0.0454
14,GCGACCTA,0.0909
15,AGGACAAC,-0.0656
16,CCTAAGCG,-0.249
17,GCTGGTGA,0.181
18,GCAATACC,-0.00798
19,GGAAAGAC,-0.189
20,AGTCCAAG,-0.086
21,TCTATTAA,-0.0243
22,ATAAAAGG,-0.166
23,GAAATTTA,-0.157
24,TAGCAGCA,-0.0178
25,CCGACGCG,0.133

row,Sequence,PBM E-score
1,ACATGCTC,-0.0232
2,ATATAAGC,0.0517
3,TAATGGGA,-0.0763
4,CCTCCAAC,-0.034
5,ACGATATA,-0.0384
6,CACAGAAG,0.0662
7,TCATCCGA,0.167
8,CACGAAAC,0.162
9,GGCAAAAC,-0.172
10,CCGTGCCA,-0.15
11,GACTTATA,0.145
12,GCATTGTA,-0.0897
13,ATCTCGGA,0.0433
14,AGTGTCGA,0.0179
15,CAATTGTC,0.0541
16,ACACTACG,0.00082
17,ACGTGGCA,-0.147
18,CCGCCTCG,0.147
19,ACCCACGG,0.038
20,AGGTTGTA,0.0142
21,CGGGCTTC,0.048
22,ACAGGAAC,-0.107
23,TTCATAAA,0.0491
24,GGCGACGA,-0.103
25,AAATGCGA,-0.00728

row,Sequence,PBM E-score
1,CAACAGTG,0.105
2,ACACCCCA,-0.026
3,CGATTGAG,0.142
4,ACTATGAG,0.181
5,GAATTATA,-0.14
6,CTACTACA,0.119
7,ACGACTAC,0.209
8,GCTGTGAC,0.23
9,TCTGTTCA,0.151
10,CTATAGGA,-0.117
11,ATCCTCCA,-0.186
12,CGACGACA,-0.0337
13,AGGAGTCA,0.479
14,CGTTCGAG,-0.0846
15,ACCACGGC,0.0744
16,GGAAGAAC,0.0668
17,AATGTCGA,-0.0216
18,AACAACAG,-0.0774
19,CAAGGACA,-0.105
20,ATATCTTG,0.147
21,ACTATAAA,-0.0123
22,GGGCACTA,-0.214
23,AATCGACG,-0.189
24,AATCTCGT,-0.0585
25,CCTCACAA,0.115

row,Sequence,PBM E-score
1,TAAAAATA,0.0139
2,ATGAAGTA,-0.0612
3,AGTTCAGC,-0.0754
4,CGATTGGA,0.0449
5,GTCGTCAA,0.00192
6,GAATATAC,0.101
7,GTGGTAAC,-0.0602
8,AGCGCTTG,-0.0808
9,CGTCAAAA,-0.0988
10,ATATGGAA,0.178
11,CTGGTAGC,0.0951
12,CATAGTCG,0.238
13,CGTATTGA,0.101
14,AAGAATGC,-0.16
15,ACCCTCCG,-0.0102
16,ACCGGACG,0.283
17,AACAGTGC,0.0528
18,GAGACAAA,-0.214
19,CTTAATAA,-0.126
20,CACGAGTG,-0.0364
21,GAAATAAC,0.088
22,GGCGGTGA,0.184

# — the supplement of paper PMC3334620
